# Data taken from patent US20130236459A1 (MERRIMACK PHARMACEUTICALS, published 2013).
# B1: SF-G1-C8 (bispecific antibody, human IgG1, kappa)
# heavy: EVQLLQSGGGLVQPGGSLRLSCAASGFTFSVYPMHWVRQAPGKGLEWVSSISSSGGATRYADSVKGRFTISRDNSKNTLYLQMNSLRAEDTAVYYCAKDFYDILTGNAFDIWGQGTTVTVSSASTKGPSVFPLAPSSKSTSGGTAALGCLVKDYFPEPVTVSWNSGALTSGVHTFPAVLQSSGLYSLSSVVTVPSSSLGTQTYICNVNHKPSNTKVDKKV[left out - human IgG1 Fc]GGGSGGGGSGGGGSQVQLVQSGGGLVQPGGSLRLSCAASGFTFDDYAMHWVRQAPGKGLEWVAGISWNSGSIGYADSVKGRFTISRDNAKNSLYLQMNSLRPEDTAVYYCARDLGYNQWVEGFDYWGQGTLVTVSSASTGGGGSGGGGSGGGGSGGGGSSYELTQDPAVSVALGQTVRITCQGDSLRSYYASWYQQKPGQAPVLVIYGKNNRPSGIPDRFSGSTSGNSASLTITGAQAEDEADYYCNSRDSSGNHWVFGGGTKVTVLG
# light: DIQMTQSPSSLSASTGDRVTITCRASQGISSYLAWYQQKPGKAPKLLIYAASTLQSGVPSRFSGSGSGTDFTLTISSLQPEDFATYYCQQYFTFPLTFGGGTKVEIKRTVAAPSVFIFPPSDEQLKSGTASVVCLLNNFYPREAKVQWKVDNALQSGNSQESVTEQDSKDSTYSLSSTLTLSKADYEKHKVYACEVTHQGLSSPVTKSFNRGEC
# notes: IgG1-(scFv)2: anti-IGF-1R SF Fab, anti-ErbB3 C8 scFv; also called 16F; SF-C8
# B2: SF-G1-M1.3 (bispecific antibody, human IgG1, kappa)
# heavy: EVQLLQSGGGLVQPGGSLRLSCAASGFTFSVYPMHWVRQAPGKGLEWVSSISSSGGATRYADSVKGRFTISRDNSKNTLYLQMNSLRAEDTAVYYCAKDFYDILTGNAFDIWGQGTTVTVSSASTKGPSVFPLAPSSKSTSGGTAALGCLVKDYFPEPVTVSWNSGALTSGVHTFPAVLQSSGLYSLSSVVTVPSSSLGTQTYICNVNHKPSNTKVDKKV[left out - human IgG1 Fc]GGGSGGGGSGGGGSQVQLVQSGGGLVQPGGSLRLSCAASGFTFDDYAMHWVRQAPGKGLEWVAGISWDSGSTGYADSVKGRFTISRDNAKNSLYLQMNSLRAEDTALYYCARDLGAYQWVEGFDYWGQGTLVTVSSASTGGGGSGGGGSGGGGSGGGGSSYELTQDPAVSVALGQTVRITCQGDSLRSYYASWYQQKPGQAPVLVIYGKNNRPSGIPDRFSGSTSGNSASLTITGAQAEDEADYYCNSRDSPGNQWVFGGGTKVTVLG
# light: B1 light
# notes: IgG1-(scFv)2: anti-IGF-1R Fab, anti-ErbB3 scFv
# B3: SF-G1-P6 (bispecific antibody, human IgG1, kappa)
# heavy: EVQLLQSGGGLVQPGGSLRLSCAASGFTFSVYPMHWVRQAPGKGLEWVSSISSSGGATRYADSVKGRFTISRDNSKNTLYLQMNSLRAEDTAVYYCAKDFYDILTGNAFDIWGQGTTVTVSSASTKGPSVFPLAPSSKSTSGGTAALGCLVKDYFPEPVTVSWNSGALTSGVHTFPAVLQSSGLYSLSSVVTVPSSSLGTQTYICNVNHKPSNTKVDKKV[left out - human IgG1 Fc]GGGSGGGGSGGGGSEVQLVESGGGLVQPGRSLRLSCAASGFTFDDYAMHWVRQAPGKGLEWVSGISWNSGSTGYADSVKGRFTISRDNAKNSLYLQMNSLRAEDTALYYCARDLGYNQWLEGFDYWGQGTLVTVSSASTGGGGSGGGGSGGGGSSSELTQDPAVSVALGQTVRITCQGDSLRSYYASWYQQKPGQAPVLVIYGKNNRPSGIPDRFSGSSSGNTASLTITGAQAEDEADYYCMSRDHPGNQWVFGGGTKVTVLG
# light: B1 light
# notes: as for B2
# B4: SF-G1-B69 (bispecific antibody, human IgG1, kappa)
# heavy: EVQLLQSGGGLVQPGGSLRLSCAASGFTFSVYPMHWVRQAPGKGLEWVSSISSSGGATRYADSVKGRFTISRDNSKNTLYLQMNSLRAEDTAVYYCAKDFYDILTGNAFDIWGQGTTVTVSSASTKGPSVFPLAPSSKSTSGGTAALGCLVKDYFPEPVTVSWNSGALTSGVHTFPAVLQSSGLYSLSSVVTVPSSSLGTQTYICNVNHKPSNTKVDKKV[left out - human IgG1 Fc]GGGSGGGGSGGGGSEVQLVESGGGLVQPGRSLRLSCAASGFTFDDYAMHWVRQAPGKGLEWVSGISWNSGSVGYADSVKGRFTISRDNAKNSLYLQMNSLRAEDTALYYCARDLGYNQWLEGFDYWGQGTLVTVSSASTGGGGSGGGGSGGGGSSSELTQDPAVSVALGQTVRITCQGDSLRSYYASWYQQKPGQAPVLVIYGKNNRPSGIPDRFSGSSSGNTASLTITGAQAEDEADYYCMSRDSPGNQWVFGGGTKVTVLG
# light: B1 light
# notes: as for B2
# B5: SF-G1-M27 (bispecific antibody, human IgG1, kappa)
# heavy: EVQLLQSGGGLVQPGGSLRLSCAASGFTFSVYPMHWVRQAPGKGLEWVSSISSSGGATRYADSVKGRFTISRDNSKNTLYLQMNSLRAEDTAVYYCAKDFYDILTGNAFDIWGQGTTVTVSSASTKGPSVFPLAPSSKSTSGGTAALGCLVKDYFPEPVTVSWNSGALTSGVHTFPAVLQSSGLYSLSSVVTVPSSSLGTQTYICNVNHKPSNTKVDKKV[left out - human IgG1 Fc]GGGSGGGGSGGGGSEVQLVESGGGLVQPGRSLRLSCAASGFTFDDYAMHWVRQAPGKGLEWVSGISWNSGSTGYADSVKGRFTISRDNAKNSLYLQMNSLRAEDTALYYCARDLGFNQWVDGFDYWGQGTLVTVSSASTGGGGSGGGGSGGGGSSSELTQDPAVSVALGQTVRITCQGDSLRSYYASWYQQKPGQAPVLVIYGKNNRPSGIPDRFSGSSSGNTASLTITGAQAEDEADYYCNSRDTPGDQWVFGGGTKVTVLG
# light: B1 light
# notes: as for B2
# B6: SF-G1-P1 (bispecific antibody, human IgG1, kappa)
# heavy: EVQLLQSGGGLVQPGGSLRLSCAASGFTFSVYPMHWVRQAPGKGLEWVSSISSSGGATRYADSVKGRFTISRDNSKNTLYLQMNSLRAEDTAVYYCAKDFYDILTGNAFDIWGQGTTVTVSSASTKGPSVFPLAPSSKSTSGGTAALGCLVKDYFPEPVTVSWNSGALTSGVHTFPAVLQSSGLYSLSSVVTVPSSSLGTQTYICNVNHKPSNTKVDKKV[left out - human IgG1 Fc]GGGSGGGGSGGGGSEVQLVESGGGLVQPGRSLRLSCAASGFTFDDYAMHWVRQAPGKGLEWVSGISWDSGSTGYADSVKGRFTISRDNAKNSLYLQMNSLRAEDTALYYCARDLGAYQWVEGFDYWGQGTLVTVSSASTGGGGSGGGGSGGGGSSSELTQDPAVSVALGQTVRITCQGDSLRSYYASWYQQKPGQAPVLVIYGKNNRPSGIPDRFSGSSSGNTASLTITGAQAEDEADYYCESRDSPGNQWVFGGGTKVTVLG
# light: B1 light
# notes: as for B2
# What was measured:
# [1] = target: T1, IGF-1R (receptor for insulin-like growth factor 1), endogenous on human tumor cell lines (human, UniProt P08069 31-1367); assay: cell-based or functional assay
# [2] = target: T2, ErbB3 (HER3), endogenous on human tumor cell lines (human, UniProt P21860 20-1342); assay: cell-based or functional assay
# [3] = target: T1, IGF-1R (receptor for insulin-like …); assay: cell-based or functional assay; remark: listed apart in the source
# [4] = target: T2, ErbB3 (HER3), endogenous on human tumor …; assay: cell-based or functional assay; remark: listed apart in the source
# [5] = target: T1, IGF-1R (receptor for insulin-like …); assay: cell-based or functional assay; remark: listed apart in the source
# [6] = target: T2, ErbB3 (HER3), endogenous on human tumor …; assay: cell-based or functional assay; remark: listed apart in the source
# [7] = target: T1, IGF-1R (receptor for insulin-like …); assay: cell-based or functional assay; remark: listed apart in the source
# [8] = target: T2, ErbB3 (HER3), endogenous on human tumor …; assay: cell-based or functional assay; remark: listed apart in the source
# [9] = target: T1, IGF-1R (receptor for insulin-like …); assay: cell-based or functional assay; remark: listed apart in the source
# [10] = target: T2, ErbB3 (HER3), endogenous on human tumor …; assay: cell-based or functional assay; remark: listed apart in the source
# [11] = target: T1, IGF-1R (receptor for insulin-like …); assay: cell-based or functional assay; remark: listed apart in the source
# [12] = target: T2, ErbB3 (HER3), endogenous on human tumor …; assay: cell-based or functional assay; remark: listed apart in the source
# [13] = target: T1, IGF-1R (receptor for insulin-like …); assay: cell-based or functional assay; remark: listed apart in the source
# [14] = target: T2, ErbB3 (HER3), endogenous on human tumor …; assay: cell-based or functional assay; remark: listed apart in the source
# [15] = target: T3, ErbB3-His (ErbB3 with a C-terminal hexa-histidine tag), human (human, UniProt P21860 part only); assay: ELISA, ErbB3-His coated plate, anti-Fc-HRP
# T3 construct: Bought reagent; also called recombinant ErbB3
# Description: 96-well REACTI-BIND plates (Pierce) are coated with 50 ul of ErbB3-His (ErbB3 with a C-terminal hexa-histidine tag—2 ug/ml in PBS) (“hexa-histidine” disclosed as SEQ ID NO:403) and incubated overnight at 4° C. The next day plates are washed with PBS+0.05% Tween-20 (PBS-T) and blocked for 1 hr. at room temperature with 100 ul of Protein-Free Blocking Buffer (Pierce). Plates are washed with PBS-T and 50 ul of each bispecific antibody is added in duplicate. Concentrations start at 500 nM (in PBS-T) and include ten additional two-fold dilutions and one blank (PBS-T only). Plates are incubated at room temperature for two hours and then washed with PBS-T. 50 ul of anti-Fc-HRP (Jackson Labs) is added at 1:40,000 in PBS-T, and plates are incubated in the dark for 1 hr. at room temperature. Plates are again washed with PBS-T and 100 ul of TMB substrate (Thermo Scientific, TMB and peroxide solution mixed 1:1) added. The plates are incubated for 5-15 minutes at room temperature until a blue color develops, and the reaction is stopped with 100 ul of STOP solution (Cell Signaling Technology). The absorbance was read at 450 nm on a PerkinElmer Envision plate reader, and binding curves were generated with GraphPad PRISM, using a log (agonist) vs response (three parameter) non-linear regression curve fit.
# T1 sequence (P08069 31-1367): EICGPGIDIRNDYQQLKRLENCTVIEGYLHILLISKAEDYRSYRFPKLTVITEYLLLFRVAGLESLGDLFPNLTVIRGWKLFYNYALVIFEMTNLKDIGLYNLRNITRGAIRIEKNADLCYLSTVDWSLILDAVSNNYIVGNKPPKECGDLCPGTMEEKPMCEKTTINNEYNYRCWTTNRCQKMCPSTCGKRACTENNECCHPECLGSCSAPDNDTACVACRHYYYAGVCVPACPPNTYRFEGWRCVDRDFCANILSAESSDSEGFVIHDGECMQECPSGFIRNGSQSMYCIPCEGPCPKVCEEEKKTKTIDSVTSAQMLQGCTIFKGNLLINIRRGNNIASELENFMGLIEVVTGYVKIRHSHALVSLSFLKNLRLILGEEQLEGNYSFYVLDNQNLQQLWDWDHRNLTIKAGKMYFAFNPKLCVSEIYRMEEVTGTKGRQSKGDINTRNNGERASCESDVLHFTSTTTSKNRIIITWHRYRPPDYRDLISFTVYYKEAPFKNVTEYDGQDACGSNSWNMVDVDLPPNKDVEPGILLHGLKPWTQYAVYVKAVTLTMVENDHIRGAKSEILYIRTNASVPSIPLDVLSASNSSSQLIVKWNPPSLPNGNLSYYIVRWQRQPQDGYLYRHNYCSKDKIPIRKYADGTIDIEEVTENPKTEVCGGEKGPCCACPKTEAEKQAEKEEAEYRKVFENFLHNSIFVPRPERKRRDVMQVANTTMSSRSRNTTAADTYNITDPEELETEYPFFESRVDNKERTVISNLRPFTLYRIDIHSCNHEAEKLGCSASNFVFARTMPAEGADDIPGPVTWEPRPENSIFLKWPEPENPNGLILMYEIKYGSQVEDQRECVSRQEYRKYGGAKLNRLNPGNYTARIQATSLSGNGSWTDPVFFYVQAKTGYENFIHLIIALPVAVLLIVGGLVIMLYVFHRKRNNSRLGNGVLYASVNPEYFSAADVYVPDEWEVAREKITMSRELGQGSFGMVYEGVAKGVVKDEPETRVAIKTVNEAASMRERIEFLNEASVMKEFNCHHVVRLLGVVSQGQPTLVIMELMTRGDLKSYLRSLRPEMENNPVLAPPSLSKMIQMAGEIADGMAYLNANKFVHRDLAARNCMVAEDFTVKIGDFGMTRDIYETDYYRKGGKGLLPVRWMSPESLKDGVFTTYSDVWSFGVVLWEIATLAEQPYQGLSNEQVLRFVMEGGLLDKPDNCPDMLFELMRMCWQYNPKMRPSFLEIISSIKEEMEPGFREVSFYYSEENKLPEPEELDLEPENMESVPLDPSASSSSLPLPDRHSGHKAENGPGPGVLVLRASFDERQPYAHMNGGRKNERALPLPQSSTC
binder,measurement,setting,value
B1,"pIGF-1R IC50 (BxPC-3, HRG+IGF1)",[1],1.1 nM
same,"pErbB3 IC50 (BxPC-3, HRG+IGF1)",[2],0.5 nM
same,pIGF-1R IC50 (DU145),[3],1.1e-09 M (inferred)
same,pErbB3 IC50 (BxPC-3),[4],2.4e-10 M (inferred)
same,pErbB3 IC50 (DU145),[4],2e-10 M (inferred)
same,pIGF-1R IC50 (BxPC-3),[5],1.1e-09 M (inferred)
same,pErbB3 IC50 (BxPC-3),[6],5e-10 M (inferred)
same,pIGF1R % Inhibition (BxPC-3),[7],93%
same,pIGF1R IC50 (BxPC-3),[7],9.5e-10 M (inferred)
same,pErbB3 % Inhibition (BxPC-3),[8],94.9%
same,pErbB3 IC50 (BxPC-3),[8],2.4e-10 M (inferred)
same,pIGF1R % Inhibition (BxPC-3),[9],91%
same,pIGF1R IC50 (BxPC-3),[9],5.2e-10 M (inferred)
same,pErbB3 % Inhibition (BxPC-3),[10],98%
same,pErbB3 IC50 (BxPC-3),[10],1.9e-10 M (inferred)
same,pIGF1R IC50 (BxPC-3),[11],2.6e-09 M (inferred)
same,pErbB3 IC50 (BxPC-3),[12],2.1e-10 M (inferred)
same,"pAKT IC50 (BxPC-3, IGF1 40 ng/ml)",[13],1.3e-09 M
same,"pAKT IC50 (BxPC-3, IGF1 400 ng/ml)",[13],5.9e-10 M
same,"pIGF1R IC50 (BxPC-3, IGF1 40 ng/ml)",[13],5.1e-10 M
same,"pIGF1R IC50 (BxPC-3, IGF1 400 ng/ml)",[13],4.4e-10 M
same,"pAKT IC50 (BxPC-3, HRG 20 ng/ml)",[14],4.32e-10 M
same,"pAKT IC50 (BxPC-3, HRG 200 ng/ml)",[14],5.5e-10 M
same,"pErbB3 IC50 (BxPC-3, HRG 20 ng/ml)",[14],2.69e-10 M
same,"pErbB3 IC50 (BxPC-3, HRG 200 ng/ml)",[14],2.66e-10 M
same,EC50,[15],0.3 nM
B2,pIGF1R % Inhibition (BxPC-3),[7],87.9%
same,pIGF1R IC50 (BxPC-3),[7],8e-10 M (inferred)
same,pErbB3 % Inhibition (BxPC-3),[8],97%
same,pErbB3 IC50 (BxPC-3),[8],2.5e-10 M (inferred)
same,EC50,[15],0.2 nM
B3,pIGF1R % Inhibition (BxPC-3),[7],91.2%
same,pIGF1R IC50 (BxPC-3),[7],8.2e-10 M (inferred)
same,pErbB3 % Inhibition (BxPC-3),[8],96.6%
same,pErbB3 IC50 (BxPC-3),[8],2.9e-10 M (inferred)
same,EC50,[15],0.3 nM
B4,pIGF1R % Inhibition (BxPC-3),[7],91.1%
same,pIGF1R IC50 (BxPC-3),[7],1.2e-09 M (inferred)
same,pErbB3 % Inhibition (BxPC-3),[8],97.8%
same,pErbB3 IC50 (BxPC-3),[8],5.2e-10 M (inferred)
same,EC50,[15],0.4 nM
B5,pIGF1R % Inhibition (BxPC-3),[7],90.7%
same,pIGF1R IC50 (BxPC-3),[7],6e-10 M (inferred)
same,pErbB3 % Inhibition (BxPC-3),[8],98.1%
same,pErbB3 IC50 (BxPC-3),[8],2.5e-10 M (inferred)
same,EC50,[15],0.4 nM
B6,pIGF1R % Inhibition (BxPC-3),[7],91.3%
same,pIGF1R IC50 (BxPC-3),[7],9.2e-10 M (inferred)
same,pErbB3 % Inhibition (BxPC-3),[8],95.3%
same,pErbB3 IC50 (BxPC-3),[8],6.9e-10 M (inferred)
same,EC50,[15],0.4 nM

# Read-outs that look alike come from different tables or passages of the source.
